Reference: PubChem BioAssay (NCATS)
Several values for one entry are separate records, joined by “and”; a condition that tells them apart may be missing. Equal entries are not always repeated. Inconclusive means that the source gave no clear call. Such entries were picked first, then a sample of the others. Where the call is inconclusive, the potency comes from a doubtful curve fit. Activity calls are given as the source filed them. Calls come from the whole dose curve; as a rule, active = well fitted inhibition curve with a large enough effect; inconclusive = small, poorly fitted or top-dose-only effect; inactive = flat fitted curve, though single readings scatter.

Tested on: MKL-1
Experiment: qHTS assay to identify novel small-molecules to repurpose for Merkel cell carcinoma treatment (AID 1296009); note: nearly all actives have a fitted effect of over 60% in size
Conditions: MCC and control cell lines, CellTiter-Glo viability, 72 h; activity change, negative = cytotoxicity: at 46 µM (top of the series)
Summary of the method: (§1)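 Dose-response viability screen; 72 hr exposure at 37 degree celsius; CellTiter-Glo added, 10 min room temperature, luminescence read; RLUs scaled between no-cell and DMSO wells.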
% is set by controls: 0 for no effect and ±100 for the full control effect; potency is the fitted concentration of half-maximal effect; tags give direction and shape of the fitted curve.

Structure (SMILES)	Potency	activity change, negative = cytotoxicity
S=c1nc[nH]c2nc[nH]c12	inconclusive: 0.531 µM [inhibitor, full curve]	–
Nc1nc2[nH]cc(CCc3ccc(C(=O)N[C@@H](CCC(=O)O)C(=O)O)cc3)c2c(=O)[nH]1	–	inactive: -7%
CN(C)C(=O)C(CCN1CCC(O)(c2ccc(Cl)cc2)CC1)(c1ccccc1)c1ccccc1	inconclusive: 16.8 µM [inhibitor, partial curve, poor fit]	–
COc1cc(N2CCC(N3CCN(C)CC3)CC2)ccc1Nc1ncnc(Nc2ccccc2S(=O)(=O)C(C)C)n1	inconclusive: 26.4 µM [inhibitor, single point]	–
CCCOc1ccc2nc(NC(=O)OC)[nH]c2c1	inconclusive: 59.6 nM [inhibitor, full curve] and inconclusive: 26.4 nM [inhibitor, full curve]	–
CS(=O)(=O)N1CCN(Cc2cc3nc(-c4cccc5[nH]ncc45)nc(N4CCOCC4)c3s2)CC1	inconclusive: 2.96 µM [inhibitor, full curve]	–
CCNc1cc(NC2CCC(O)CC2)nc(Nc2ccc3c(ccn3Cc3ccccc3)c2)n1 (configuration not stated)	–	inactive: 2.84%
CO[C@H]1C[C@@H]2CC[C@@H](C)[C@@](O)(O2)C(=O)C(=O)N2CCCC[C@@H]2C(=O)O[C@H]([C@H](C)C[C@@H]2CC[C@H](OP(C)(C)=O)[C@H](OC)C2)CC(=O)[C@H](C)C=C(C)[C@@H](O)[C@@H](OC)C(=O)[C@H](C)C[C@H](C)C=CC=CC=C1C	inconclusive: 26.4 µM [inhibitor, single point]	–
N=C(N=C(N)N)N1CCOCC1	inactive	–
CCOc1ccc(Nc2nc(-c3c(C)nc4ccccn34)cs2)cc1	inconclusive: 0.0105 µM [inhibitor, full curve]	–
NC1=N[C@@]2(c3cc(NC(=O)c4ccc(F)cn4)ccc3F)COC[C@@H]2CS1	active: 10.5 µM	–
Cc1ccc(C(C)(O)c2nc3ccccc3s2)c(C)c1 (configuration not stated)	active: 16.6 µM	–
Cc1cc(C2CCCCC2)n(O)c(=O)c1	active: 2.11 µM and active: 10.5 µM	–
Cc1cccc2c1CC[C@H](CN1CCC(c3c(Cl)cccc3Cl)CC1)C[C@@H]2O	–	inactive: -3.48%
Cc1cc(C(=O)N2CCN(c3cccc(Cl)c3)CC2)n(-c2ccccc2)n1	inconclusive: 2.96 µM [inhibitor, full curve]	–
COc1cc([C@@H]2c3cc4c(cc3[C@H](O)[C@H]3COC(=O)[C@@H]23)OCO4)cc(OC)c1OC	inconclusive: 0.372 µM [inhibitor, full curve]	–
CCNC(=O)c1cc2c(-c3cc(OCCN4CCCC4)c(Cl)cc3Cl)nc(N)nc2s1	inconclusive: 2.09 µM [inhibitor, full curve]	–
CCNC(=O)Nc1ccc2ncc(Nc3ccc(C)cc3)nc2n1	inconclusive: 0.296 µM [inhibitor, full curve]	–
OCCCNc1cc(-c2ccnc(Nc3cccc(Cl)c3)n2)ccn1	inconclusive: 0.118 µM [inhibitor, full curve]	–
O=c1[nH]c(=O)n([C@H]2C[C@@H](O)[C@@H](CO)O2)cc1F	inconclusive: 1.48 µM [inhibitor, full curve]	–
O=C(NC1CC1)c1cccc(-c2ccc3c(NC(=O)C4CC4)n[nH]c3c2)c1	inconclusive: 11.8 µM [inhibitor, partial curve]	–
CN(C)C(=O)[C@H](O)[C@H](Cc1ccccc1)NC(=O)c1cc2cc(Cl)ccc2[nH]1	inconclusive: 11.8 µM [inhibitor, partial curve, poor fit]	–
COc1cc([C@@H]2c3cc4c(cc3[C@H](O)[C@H]3COC(=O)[C@H]23)OCO4)cc(OC)c1OC	inconclusive: 0.0422 µM [inhibitor, full curve]	–
Cc1cccc(-c2[nH]c(C(C)(C)C)nc2-c2ccc3nccnc3c2)n1	active: 2.64 µM	–
CC(C)n1nc(-c2ccc3oc(N)nc3c2)c2c(N)ncnc21	inconclusive: 0.118 µM [inhibitor, full curve]	–
COc1cc(N2CCC(N3CCN(C)CC3)CC2)ccc1Nc1ncc(Cl)c(Nc2ccccc2S(=O)(=O)C(C)C)n1	inconclusive: 1.66 µM [inhibitor, full curve]	–

Tested on: MKL-2
Experiment: as above
Conditions: MCC and control cell lines, CellTiter-Glo viability, 72 h; activity change, negative = cytotoxicity: at 46 µM (top of the series)
Summary of the method: as §1

Structure (SMILES)	Potency	activity change, negative = cytotoxicity
S=c1nc[nH]c2nc[nH]c12	inactive	–
COc1cc(C(=O)NC2CCN(C)CC2)ccc1Nc1ncc2c(n1)N(C1CCCC1)CCC(=O)N2C(C)C	inconclusive: 1.32 µM [inhibitor, full curve]	–
CN(C)C(=O)C(CCN1CCC(O)(c2ccc(Cl)cc2)CC1)(c1ccccc1)c1ccccc1	active: 18.7 µM and inconclusive: 33.5 µM [inhibitor, single point]	–
CCCOc1ccc2nc(NC(=O)OC)[nH]c2c1	inconclusive: 16.8 nM [inhibitor, full curve, poor fit] and inconclusive: 3.7 nM [inhibitor, full curve, poor fit]	–
CS(=O)(=O)N1CCN(Cc2cc3nc(-c4cccc5[nH]ncc45)nc(N4CCOCC4)c3s2)CC1	inconclusive: 11.8 µM [inhibitor, partial curve]	–
CN(C[C@@H]1COCCO1)S(=O)(=O)Nc1ccc2ccc3ncc(-c4cnn(C)c4)cc3c(=O)c2c1	inconclusive: 4.18 µM [inhibitor, partial curve]	–
CCOc1ccc(Nc2nc(-c3c(C)nc4ccccn34)cs2)cc1	inconclusive: 0.166 µM [inhibitor, partial curve, poor fit]	–
NC1=N[C@@]2(c3cc(NC(=O)c4ccc(F)cn4)ccc3F)COC[C@@H]2CS1	–	inactive: -25.8%
Cc1ccc(C(C)(O)c2nc3ccccc3s2)c(C)c1 (configuration not stated)	inconclusive: 4.18 µM [inhibitor, partial curve]	–
Cc1cc(C(=O)N2CCN(c3cccc(Cl)c3)CC2)n(-c2ccccc2)n1	inconclusive: 1.32 µM [inhibitor, full curve]	–
CCNC(=O)Nc1ccc2ncc(Nc3ccc(C)cc3)nc2n1	inconclusive: 0.296 µM [inhibitor, full curve]	–
OCCCNc1cc(-c2ccnc(Nc3cccc(Cl)c3)n2)ccn1	active: 0.296 µM	–
C#C[C@]1(O)CC[C@H]2[C@H]3CCc4cc(OC)ccc4[C@H]3CC[C@@]21C	–	inactive: -8.43%
O=c1[nH]c(=O)n([C@H]2C[C@@H](O)[C@@H](CO)O2)cc1F	inconclusive: 11.8 µM [inhibitor, partial curve, poor fit]	–
O=C(NC1CC1)c1cccc(-c2ccc3c(NC(=O)C4CC4)n[nH]c3c2)c1	–	inactive: -34.8%
Oc1ccc(-c2ccc(-c3cc(Nc4cccc(CNC5CC5)c4)n[nH]3)cc2)c(O)c1	inconclusive: 5.26 µM [inhibitor, full curve]	–
COc1cc([C@@H]2c3cc4c(cc3[C@H](O)[C@H]3COC(=O)[C@H]23)OCO4)cc(OC)c1OC	inconclusive: 0.0335 µM [inhibitor, full curve]	–
CCCCCCCCCCCCCC(=O)N[C@H](CO)[C@H](O)c1ccc([N+](=O)[O-])cc1	–	inactive: 0.0889%
CN(C)Cc1cccc(N=C(c2ccccc2)c2c(O)[nH]c3cc(C(=O)N(C)C)ccc23)c1	inconclusive: 16.6 µM [inhibitor, single point]	–
Cc1cccc(-c2[nH]c(C(C)(C)C)nc2-c2ccc3nccnc3c2)n1	inconclusive: 1.87 µM [inhibitor, full curve, poor fit]	–
CC(C)n1nc(-c2ccc3oc(N)nc3c2)c2c(N)ncnc21	inconclusive: 6.62 µM [inhibitor, partial curve, poor fit]	–
